# The supplement of paper PMC10037445
# The full ranking holds about 2,900 compounds; the median of “NF-kB SEAP reporter activity, fold change vs agonist alone” is about 0.99, and the highest 2% start at about 2.6. This is one part of the list.
# Key:
# RAW-Dual [1] = test: NF-kB SEAP reporter activity, fold change vs agonist alone; higher = enhanced NF-kB activity; conditions: library stock concentration (final ~1000-fold dilution): 10 mM
# Summary of the method: (§1)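 Library stock was pin-tooled at 50 nL into 384-well plates of RAW-Dual macrophages (50,000 cells/well, DMEM), followed 1 h later by a PRR agonist, and the cells were kept at 37 °C, 5% CO2. Supernatant collected after 20 hours was read for IRF by QuantiLuc luminescence and for NF-κB by QuantiBlue absorbance at 620 nm. Reporter activity is fold change over agonist-alone wells, and a well counted as cytotoxic when its IncuCyte confluency was below 70% of agonist controls in both mask sets.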
# RAW-Dual [2] = test: NF-kB SEAP reporter activity, fold change vs agonist alone; cytotoxicity flag (confluency mask): not cytotoxic; higher = enhanced NF-kB activity
# Summary of the method: as §1
# RAW-Dual [3] = test: NF-kB SEAP reporter activity, fold change vs agonist alone; cytotoxicity flag (confluency mask): cytotoxic (confluency <70% of control); higher = enhanced NF-kB activity
# Summary of the method: as §1
# [4] = cytotoxicity flag (confluency mask): not cytotoxic, agonist: Imiquimod (TLR7) […]
# [5] = cytotoxicity flag (confluency mask): not cytotoxic, agonist: MPLA (TLR4) […]
# [6] = agonist: ODN 1826 (TLR9) 0.5 ug/mL
# [7] = agonist: Pam2CSK4 (TLR2/6) 0.1 ug/mL
# [8] = agonist: Pam3CSK4 (TLR2/1) 0.1 ug/mL
# [9] = cytotoxicity flag (confluency mask): cytotoxic (confluency <70% of control), agonist: Imiquimod (TLR7) […]
# [10] = cytotoxicity flag (confluency mask): cytotoxic (confluency <70% of control), agonist: MPLA (TLR4) […]
compound,measurement,setting,value
N#C/C(=C\c1ccc(O)cc1)C(=O)O,NF-kB SEAP reporter activity,RAW-Dual [1]; [4],0.863
same,NF-kB SEAP reporter activity,RAW-Dual [1]; [5],0.999
N#C/C(=C\c1ccc(O)cc1)C(=O)O (library stock concentration (final ~1000-fold dilution): 10 mM),NF-kB SEAP reporter activity,RAW-Dual [2]; agonist: LPS (TLR4) 0.1 ug/mL,0.909
same,NF-kB SEAP reporter activity,RAW-Dual [2]; [6],0.945
same,NF-kB SEAP reporter activity,RAW-Dual [2]; [7],0.817
same,NF-kB SEAP reporter activity,RAW-Dual [2]; [8],1.13
CCN(C)C(=O)Oc1cccc(C(C)N(C)C)c1 (centres undefined),NF-kB SEAP reporter activity,RAW-Dual [1]; [5],1
CCN(C)C(=O)Oc1cccc(C(C)N(C)C)c1 (centres undefined) (library stock concentration (final ~1000-fold dilution): 10 mM),NF-kB SEAP reporter activity,RAW-Dual [2]; agonist: LPS (TLR4) 0.1 ug/mL,1.01
same,NF-kB SEAP reporter activity,RAW-Dual [2]; [6],0.865
same,NF-kB SEAP reporter activity,RAW-Dual [2]; [7],1.06
same,NF-kB SEAP reporter activity,RAW-Dual [2]; [8],1.07
O=C(CBr)c1ccc(O)cc1,NF-kB SEAP reporter activity,RAW-Dual [1]; [4],0.973
same,NF-kB SEAP reporter activity,RAW-Dual [1]; [5],0.895
O=C(CBr)c1ccc(O)cc1 (library stock concentration (final ~1000-fold dilution): 10 mM),NF-kB SEAP reporter activity,RAW-Dual [2]; agonist: LPS (TLR4) 0.1 ug/mL,1.01
same,NF-kB SEAP reporter activity,RAW-Dual [2]; [6],0.838
same,NF-kB SEAP reporter activity,RAW-Dual [2]; [7],1.36
same,NF-kB SEAP reporter activity,RAW-Dual [2]; [8],1.15
O=C1C=CCC2C3CCCN4CCCC(CN12)C34 (centres undefined) (library stock concentration (final ~1000-fold dilution): 10 mM),NF-kB SEAP reporter activity,RAW-Dual [2]; agonist: LPS (TLR4) 0.1 ug/mL,1.08
same,NF-kB SEAP reporter activity,RAW-Dual [2]; [6],0.973
same,NF-kB SEAP reporter activity,RAW-Dual [2]; [7],0.975
same,NF-kB SEAP reporter activity,RAW-Dual [2]; [8],1.26
O=C1C=CCC2C3CCCN4CCCC(CN12)C34 (centres undefined),NF-kB SEAP reporter activity,RAW-Dual [1]; [4],0.892
same,NF-kB SEAP reporter activity,RAW-Dual [1]; [5],0.902
CC1OC(OC2CC(O)C3(CO)C4C(O)CC5(C)C(C6=CC(=O)OC6)CCC5(O)C4CCC3(O)C2)C(O)C(O)C1O.O.O.O.O.O.O.O.O (centres undefined),NF-kB SEAP reporter activity,RAW-Dual [1]; [4],0.834
same,NF-kB SEAP reporter activity,RAW-Dual [1]; [5],1.03
CC1OC(OC2CC(O)C3(CO)C4C(O)CC5(C)C(C6=CC(=O)OC6)CCC5(O)C4CCC3(O)C2)C(O)C(O)C1O.O.O.O.O.O.O.O.O (centres undefined) (library stock concentration (final ~1000-fold dilution): 10 mM),NF-kB SEAP reporter activity,RAW-Dual [2]; agonist: LPS (TLR4) 0.1 ug/mL,1.1
same,NF-kB SEAP reporter activity,RAW-Dual [2]; [6],0.963
same,NF-kB SEAP reporter activity,RAW-Dual [2]; [7],1.06
same,NF-kB SEAP reporter activity,RAW-Dual [2]; [8],1.12
COc1cc(C(=O)OC2C3C=COC(OC4OC(CO)C(O)C(O)C4O)C3C3(CO)OC23)ccc1O (centres undefined),NF-kB SEAP reporter activity,RAW-Dual [1]; [4],0.884
same,NF-kB SEAP reporter activity,RAW-Dual [1]; [5],1.07
COc1cc(C(=O)OC2C3C=COC(OC4OC(CO)C(O)C(O)C4O)C3C3(CO)OC23)ccc1O (centres undefined) (library stock concentration (final ~1000-fold dilution): 10 mM),NF-kB SEAP reporter activity,RAW-Dual [2]; agonist: LPS (TLR4) 0.1 ug/mL,1.37
same,NF-kB SEAP reporter activity,RAW-Dual [2]; [6],1.13
same,NF-kB SEAP reporter activity,RAW-Dual [2]; [7],1.13
same,NF-kB SEAP reporter activity,RAW-Dual [2]; [8],1
CC(C)OC(=O)C(C)NP(=O)(COC(C)Cn1cnc2c(N)ncnc21)Oc1ccccc1 (centres undefined) (library stock concentration (final ~1000-fold dilution): 10 mM),NF-kB SEAP reporter activity,RAW-Dual [2]; agonist: LPS (TLR4) 0.1 ug/mL,1.04
same,NF-kB SEAP reporter activity,RAW-Dual [2]; [6],0.921
same,NF-kB SEAP reporter activity,RAW-Dual [2]; [7],1.23
same,NF-kB SEAP reporter activity,RAW-Dual [2]; [8],1.29
CC(C)OC(=O)C(C)NP(=O)(COC(C)Cn1cnc2c(N)ncnc21)Oc1ccccc1 (centres undefined),NF-kB SEAP reporter activity,RAW-Dual [1]; [4],0.979
same,NF-kB SEAP reporter activity,RAW-Dual [1]; [5],1.1
COC(=O)Nc1nc2ccccc2[nH]1 (library stock concentration (final ~1000-fold dilution): 10 mM),NF-kB SEAP reporter activity,RAW-Dual [2]; agonist: LPS (TLR4) 0.1 ug/mL,0.882
same,NF-kB SEAP reporter activity,RAW-Dual [2]; [6],0.973
same,NF-kB SEAP reporter activity,RAW-Dual [2]; [7],0.88
same,NF-kB SEAP reporter activity,RAW-Dual [2]; [8],1
COC(=O)Nc1nc2ccccc2[nH]1,NF-kB SEAP reporter activity,RAW-Dual [1]; [4],1.02
same,NF-kB SEAP reporter activity,RAW-Dual [1]; [5],1.02
C[N+](C)(C)CCCCCCCCCC[N+](C)(C)C (library stock concentration (final ~1000-fold dilution): 10 mM),NF-kB SEAP reporter activity,RAW-Dual [2]; agonist: LPS (TLR4) 0.1 ug/mL,1.32
same,NF-kB SEAP reporter activity,RAW-Dual [2]; [6],0.97
same,NF-kB SEAP reporter activity,RAW-Dual [2]; [7],1.22
same,NF-kB SEAP reporter activity,RAW-Dual [2]; [8],1.13
C[N+](C)(C)CCCCCCCCCC[N+](C)(C)C,NF-kB SEAP reporter activity,RAW-Dual [1]; [4],0.934
same,NF-kB SEAP reporter activity,RAW-Dual [1]; [5],1.02
O=C(O)CNC(=O)c1c(O)c2ccccc2n(Cc2ccccc2)c1=O (library stock concentration (final ~1000-fold dilution): 10 mM),NF-kB SEAP reporter activity,RAW-Dual [2]; agonist: LPS (TLR4) 0.1 ug/mL,1.37
same,NF-kB SEAP reporter activity,RAW-Dual [2]; [6],1.02
same,NF-kB SEAP reporter activity,RAW-Dual [2]; [7],1.19
same,NF-kB SEAP reporter activity,RAW-Dual [2]; [8],1.13
O=C(O)CNC(=O)c1c(O)c2ccccc2n(Cc2ccccc2)c1=O,NF-kB SEAP reporter activity,RAW-Dual [1]; [4],1
same,NF-kB SEAP reporter activity,RAW-Dual [1]; [5],1.04
Cl.Cl.Fc1ccc(C(OCCN2CCN(CCCc3ccccc3)CC2)c2ccc(F)cc2)cc1,NF-kB SEAP reporter activity,RAW-Dual [1]; [9],1.8
same,NF-kB SEAP reporter activity,RAW-Dual [1]; [10],0.692
Cl.Cl.Fc1ccc(C(OCCN2CCN(CCCc3ccccc3)CC2)c2ccc(F)cc2)cc1 (library stock concentration (final ~1000-fold dilution): 10 mM),NF-kB SEAP reporter activity,RAW-Dual [3]; agonist: LPS (TLR4) 0.1 ug/mL,0.46
same,NF-kB SEAP reporter activity,RAW-Dual [3]; [6],0.236
same,NF-kB SEAP reporter activity,RAW-Dual [3]; [7],0.361
same,NF-kB SEAP reporter activity,RAW-Dual [3]; [8],0.301
CCC12C=CCN3CCC4(C(=C(C(=O)OC)C1)Nc1ccccc14)C32 (centres undefined),NF-kB SEAP reporter activity,RAW-Dual [1]; [4],1.19
same,NF-kB SEAP reporter activity,RAW-Dual [1]; [5],1.94
CCC12C=CCN3CCC4(C(=C(C(=O)OC)C1)Nc1ccccc14)C32 (centres undefined) (library stock concentration (final ~1000-fold dilution): 10 mM),NF-kB SEAP reporter activity,RAW-Dual [2]; agonist: LPS (TLR4) 0.1 ug/mL,0.997
same,NF-kB SEAP reporter activity,RAW-Dual [2]; [6],0.986
same,NF-kB SEAP reporter activity,RAW-Dual [2]; [7],0.9
same,NF-kB SEAP reporter activity,RAW-Dual [2]; [8],1.52
O=C(CBr)N1CC([N+](=O)[O-])([N+](=O)[O-])C1 (library stock concentration (final ~1000-fold dilution): 10 mM),NF-kB SEAP reporter activity,RAW-Dual [3]; agonist: LPS (TLR4) 0.1 ug/mL,0.335
same,NF-kB SEAP reporter activity,RAW-Dual [3]; [6],0.252
same,NF-kB SEAP reporter activity,RAW-Dual [3]; [7],0.0912
same,NF-kB SEAP reporter activity,RAW-Dual [3]; [8],0.189
O=C(CBr)N1CC([N+](=O)[O-])([N+](=O)[O-])C1,NF-kB SEAP reporter activity,RAW-Dual [1]; [9],0.542
same,NF-kB SEAP reporter activity,RAW-Dual [1]; [10],0.295
O=C(OC1CC2CCC(C1)[N+]21CCCC1)C(O)(c1ccccc1)c1ccccc1 (centres undefined),NF-kB SEAP reporter activity,RAW-Dual [1]; [4],1.1
same,NF-kB SEAP reporter activity,RAW-Dual [1]; [5],0.947
